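1) Cells in 96-well plates. 2) Compound, 48 h, 5 concentrations. 3) Linear interpolation between surrounding doses. 4) Unreached endpoint = highest concentration. GI50 is the concentration that inhibits growth by half. Definition used: TGI = concentration required for complete inhibition of growth.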 Active and inactive are the calls of the source.
Assays:
Experiment in all cases: inhibition of tumour cell growth, NCI panel, 48 h
786-0 renal = test system: 786-0 renal
A549 NSCLC = test system: A549 NSCLC
ACHN renal = test system: ACHN renal
BT-549 breast = test system: BT-549 breast
CAKI-1 renal = test system: CAKI-1 renal
CCRF-CEM leukemia = test system: CCRF-CEM leukemia
COLO 205 colon = test system: COLO 205 colon
DU-145 prostate = test system: DU-145 prostate
EKVX NSCLC = test system: EKVX NSCLC
HCC-2998 colon = test system: HCC-2998 colon
HCT-116 colon = test system: HCT-116 colon
HCT-15 colon = test system: HCT-15 colon
HL-60(TB) leukemia = test system: HL-60(TB) leukemia
HOP-62 NSCLC = test system: HOP-62 NSCLC
HT29 colon = test system: HT29 colon
IGROV1 ovarian = test system: IGROV1 ovarian
K-562 leukemia = test system: K-562 leukemia
KM12 colon = test system: KM12 colon
LOX IMVI melanoma = test system: LOX IMVI melanoma
M14 melanoma = test system: M14 melanoma
MALME-3M melanoma = test system: MALME-3M melanoma
MCF7 breast = test system: MCF7 breast
MDA-MB-231 breast = test system: MDA-MB-231 breast
MDA-MB-435 = test system: MDA-MB-435
MOLT-4 leukemia = test system: MOLT-4 leukemia
NCI-H226 lung = test system: NCI-H226 lung
NCI-H23 lung = test system: NCI-H23 lung
NCI-H460 lung = test system: NCI-H460 lung
NCI/ADR-RES ovarian = test system: NCI/ADR-RES ovarian
OVCAR-3 ovarian = test system: OVCAR-3 ovarian
OVCAR-4 ovarian = test system: OVCAR-4 ovarian
OVCAR-5 ovarian = test system: OVCAR-5 ovarian
OVCAR-8 ovarian = test system: OVCAR-8 ovarian
PC-3 prostate = test system: PC-3 prostate
RXF 393 renal = test system: RXF 393 renal
SF-268 CNS = test system: SF-268 CNS
SF-295 CNS = test system: SF-295 CNS
SF-539 CNS = test system: SF-539 CNS
SK-MEL-2 melanoma = test system: SK-MEL-2 melanoma
SK-MEL-28 melanoma = test system: SK-MEL-28 melanoma
SK-MEL-5 melanoma = test system: SK-MEL-5 melanoma
SK-OV-3 ovarian = test system: SK-OV-3 ovarian
SN12C renal = test system: SN12C renal
SNB-19 CNS = test system: SNB-19 CNS
SNB-75 CNS = test system: SNB-75 CNS
SR leukemia = test system: SR leukemia
SW-620 colon = test system: SW-620 colon
T-47D breast = test system: T-47D breast
TK-10 renal = test system: TK-10 renal
U251 CNS = test system: U251 CNS
UACC-257 melanoma = test system: UACC-257 melanoma
UACC-62 melanoma = test system: UACC-62 melanoma
UO-31 renal = test system: UO-31 renal

Cc1c2cc(O)c(=O)cc-2oc2cc(O)c(O)cc12
GI50 (786-0 renal): > 100 µM
TGI (786-0 renal): > 100 µM
GI50 (A549 NSCLC): > 100 µM
TGI (A549 NSCLC): > 100 µM
GI50 (ACHN renal): inactive
TGI (ACHN renal): > 100 µM
GI50 (BT-549 breast): > 100 µM
TGI (BT-549 breast): > 100 µM
GI50 (CAKI-1 renal): inactive
TGI (CAKI-1 renal): > 100 µM
GI50 (CCRF-CEM leukemia): inactive
TGI (CCRF-CEM leukemia): > 100 µM
GI50 (COLO 205 colon): > 100 µM
TGI (COLO 205 colon): > 100 µM
GI50 (DU-145 prostate): > 100 µM
TGI (DU-145 prostate): > 100 µM
GI50 (EKVX NSCLC): > 100 µM
TGI (EKVX NSCLC): > 100 µM
GI50 (HCC-2998 colon): > 100 µM
TGI (HCC-2998 colon): > 100 µM
GI50 (HCT-116 colon): > 100 µM
TGI (HCT-116 colon): > 100 µM
GI50 (HCT-15 colon): > 100 µM
TGI (HCT-15 colon): > 100 µM
GI50 (HL-60(TB) leukemia): > 100 µM
TGI (HL-60(TB) leukemia): > 100 µM
GI50 (HOP-62 NSCLC): inactive
TGI (HOP-62 NSCLC): > 100 µM
GI50 (HT29 colon): > 100 µM
TGI (HT29 colon): > 100 µM
GI50 (IGROV1 ovarian): > 100 µM
TGI (IGROV1 ovarian): > 100 µM
GI50 (K-562 leukemia): > 100 µM
TGI (K-562 leukemia): > 100 µM
GI50 (KM12 colon): > 100 µM
TGI (KM12 colon): > 100 µM
GI50 (LOX IMVI melanoma): > 100 µM
TGI (LOX IMVI melanoma): > 100 µM
GI50 (M14 melanoma): inactive
TGI (M14 melanoma): > 100 µM
GI50 (MALME-3M melanoma): > 100 µM
TGI (MALME-3M melanoma): > 100 µM
GI50 (MCF7 breast): > 100 µM
TGI (MCF7 breast): > 100 µM
GI50 (MDA-MB-231 breast): > 100 µM
TGI (MDA-MB-231 breast): > 100 µM
GI50 (MDA-MB-435): inactive
TGI (MDA-MB-435): > 100 µM
GI50 (MOLT-4 leukemia): > 100 µM
TGI (MOLT-4 leukemia): > 100 µM
GI50 (NCI-H226 lung): > 100 µM
TGI (NCI-H226 lung): > 100 µM
GI50 (NCI-H23 lung): > 100 µM
TGI (NCI-H23 lung): > 100 µM
GI50 (NCI-H460 lung): > 100 µM
TGI (NCI-H460 lung): > 100 µM
GI50 (NCI/ADR-RES ovarian): inactive
TGI (NCI/ADR-RES ovarian): > 100 µM
GI50 (OVCAR-3 ovarian): inactive
TGI (OVCAR-3 ovarian): > 100 µM
GI50 (OVCAR-4 ovarian): > 100 µM
TGI (OVCAR-4 ovarian): > 100 µM
GI50 (OVCAR-5 ovarian): > 100 µM
TGI (OVCAR-5 ovarian): > 100 µM
GI50 (OVCAR-8 ovarian): > 100 µM
TGI (OVCAR-8 ovarian): > 100 µM
GI50 (PC-3 prostate): > 100 µM
TGI (PC-3 prostate): > 100 µM
GI50 (RXF 393 renal): inactive
TGI (RXF 393 renal): > 100 µM
GI50 (SF-268 CNS): inactive
TGI (SF-268 CNS): > 100 µM
GI50 (SF-295 CNS): > 100 µM
TGI (SF-295 CNS): > 100 µM
GI50 (SF-539 CNS): > 100 µM
TGI (SF-539 CNS): > 100 µM
GI50 (SK-MEL-2 melanoma): > 100 µM
TGI (SK-MEL-2 melanoma): > 100 µM
GI50 (SK-MEL-28 melanoma): > 100 µM
TGI (SK-MEL-28 melanoma): > 100 µM
GI50 (SK-MEL-5 melanoma): > 100 µM
TGI (SK-MEL-5 melanoma): > 100 µM
GI50 (SK-OV-3 ovarian): > 100 µM
TGI (SK-OV-3 ovarian): > 100 µM
GI50 (SN12C renal): > 100 µM
TGI (SN12C renal): > 100 µM
GI50 (SNB-19 CNS): > 100 µM
TGI (SNB-19 CNS): > 100 µM
GI50 (SNB-75 CNS): inactive
TGI (SNB-75 CNS): > 100 µM
GI50 (SR leukemia): inactive
TGI (SR leukemia): > 100 µM
GI50 (SW-620 colon): > 100 µM
TGI (SW-620 colon): > 100 µM
GI50 (T-47D breast): > 100 µM
TGI (T-47D breast): > 100 µM
GI50 (TK-10 renal): > 100 µM
TGI (TK-10 renal): > 100 µM
GI50 (U251 CNS): inactive
TGI (U251 CNS): > 100 µM
GI50 (UACC-257 melanoma): > 100 µM
TGI (UACC-257 melanoma): > 100 µM
GI50 (UACC-62 melanoma): > 100 µM
TGI (UACC-62 melanoma): > 100 µM
GI50 (UO-31 renal): inactive
TGI (UO-31 renal): 75.3 µM
